# Source: PubChem BioAssay AID463173 (ICCB-Longwood Screening Facility, Harvard Medical School, 2010)
# Screen size: about 52,000 compounds; about 1,700 (3.3%) were called active. No stated cut-off is given here; in the data, active means survival mostly below about 52% (no sharp cut-off); inactive means mostly above about 56%. Some of the results follow.
# Tested on: Wild type
# Assay: S. aureus survival, RN4220 and DeltatarO strains – OD600, teichoic acid synthesis inhibitors, primary screen (AID 463173)
# Settings: S. aureus RN4220 wild type/DeltatarO growth, OD600, 18 h, active compounds read low, screened at 18.75 µg/mL (by protocol)
row,SMILES,survival
1,COc1ccc(C)cc1NC(=O)CN1C(=O)COc2ccc(S(=O)(=O)N3CCCCCC3)cc21,inactive: 90%
2,CCOC(=O)C1CCCN(C(=O)c2ccc3c(c2)N(Cc2cccc(Cl)c2)C(=O)c2ccccc2S3(=O)=O)C1 (stereo not drawn),inactive: 75%
3,COc1ccc(-n2ncc3c(=O)n(CC(=O)N4CC(C)CC(C)C4)cnc32)cc1 (stereo not drawn),inactive: 109%
4,CCc1ccc(S(=O)(=O)c2cn(C)c3cc(OC)c(OC)cc3c2=O)cc1,inactive: 129%
5,CCC1CCc2c(sc(NC(=O)C3c4ccccc4Oc4ccccc43)c2C#N)C1 (stereo not drawn),inactive: 79%
6,O=C(CN1C(=O)COc2ccc(S(=O)(=O)N3CCCCC3)cc21)NCc1ccccc1Cl,inactive: 99%
7,Cc1ccc(C)c(CN2C(=O)c3ccccc3S(=O)(=O)c3ccc(C(=O)N4CCN(C)CC4)cc32)c1,inactive: 93%
8,Cc1cc(Nc2cc(Cl)ccc2C)n2nc(Cc3ccccc3)nc2n1,inactive: 73%
9,Cc1cc(C)c(S(=O)(=O)NCC(c2ccc(N(C)C)cc2)N2CCc3ccccc32)c(C)c1 (stereo not drawn),inactive: 101%
10,CCOc1ccccc1CNC(=O)CSc1n[nH]c(-c2ccccc2Cl)n1,inactive: 72%
11,COc1ccc(CNC(=O)Cc2coc3ccc(C(C)C)cc23)cc1,inactive: 93%
12,CCC(=O)Nc1nc(C)c(-c2csc(Nc3ccc(S(N)(=O)=O)cc3)n2)s1,inactive: 128%
13,CN(C)CCCN1C(=O)C2CCc3[nH]c4ccccc4c3C2C1=O (stereo not drawn),inactive: 103%
14,Cc1cc(OCCn2cc(C(=O)c3ccco3)c3ccccc32)ccc1Cl,inactive: 54%
15,COc1ccccc1NC(=O)CSc1oc(-c2ccco2)nc1S(=O)(=O)c1ccc(Br)cc1,inactive: 93%
16,COc1cccc(CNC(=O)CCc2nc(-c3ccc(C)cc3)no2)c1,inactive: 165%
17,O=C(Nc1ccccc1)c1ccncc1,inactive: 91%
18,COc1ccc(-c2nnc(SCC(=O)Oc3cccc(C)c3C)o2)cc1,inactive: 83%
19,Cc1nn(CC(=O)NCc2cccc(F)c2)c(=O)c2c(C)n(-c3ccc(Cl)cc3)nc12,inactive: 75%
20,COc1ccccc1Oc1nc2c(C)cccn2c(=O)c1/C=C(\C#N)c1nc2ccccc2[nH]1,inactive: 65%
21,COc1ccc(N(C(=O)c2ccccc2C)S(=O)(=O)c2ccc(C)cc2)cc1,inactive: 79%
22,Cc1ccc2c(c1)c1c(c(=O)n(-c3ccccc3)c(=O)n1CC(=O)NCCC1=CCCCC1)n2C,inactive: 68%

row,SMILES,survival
1,CC1CN(C(=O)CCC(=O)NCc2cccs2)c2cc(Cl)ccc2O1 (stereo not drawn),inactive: 95%
2,O=S(=O)(c1cc(Cl)ccc1Cl)N1CCCC1,inactive: 78%
3,CCOC(=O)C1=C(CN2CCN(c3cc(C)ccc3C)CC2)NC(=O)NC1c1ccccc1 (stereo not drawn),inactive: 73%
4,COc1ccc(-n2cc(C(=O)NCc3ccc(Cl)cc3)c3ccccc3c2=O)cc1,inactive: 128%
5,COc1ccc2nc(N(Cc3cccnc3)C(=O)c3ccco3)sc2c1,inactive: 70%
6,Cc1ccc(CCNC(=O)c2cc3sccc3n2Cc2ccc(Cl)cc2)cc1,inactive: 92%
7,CCOC(=O)c1cc(-c2ccc(C)cc2)n(CC(=O)Nc2ccc(OC)c(Cl)c2)c1C,inactive: 99%
8,O=C(NC1CCCC1)C(c1ccccc1)N(Cc1ccc2c(c1)OCO2)C(=O)c1ccco1 (stereo not drawn),inactive: 110%
9,CCc1ccc2oc(C(=O)NCCc3ccc(OC)c(OC)c3)cc(=O)c2c1,inactive: 83%
10,COc1ccccc1N1CCN(S(=O)(=O)c2cc(-c3cc(C)no3)ccc2C)CC1,inactive: 68%
11,COc1cccc(CN2C(=O)C3(SCC(=O)N3c3cc(C)cc(C)c3)c3ccccc32)c1 (stereo not drawn),inactive: 70%
12,O=C(c1ccc2c(c1)OCCO2)N(Cc1cccnc1)c1nc2ccc(Cl)cc2s1,inactive: 78%
13,Cc1ccc(-c2nnn(CC(=O)N(CC(=O)NCCC(C)C)c3ccc(F)cc3)n2)cc1,inactive: 84%
14,CCC(C)NC(=O)c1ccccc1NC(=O)C1CCN(S(=O)(=O)Cc2ccccc2)CC1 (stereo not drawn),inactive: 83%
15,COc1ccc(NC(=O)CN2C(=O)C(C)Oc3ccccc32)cc1 (stereo not drawn),inactive: 97%
16,COc1ccc(S(=O)(=O)Nc2cc(-c3cn4cccc(C)c4n3)ccc2C)cc1C,inactive: 59%
17,Cc1ccc(C(C)C)c(OCC(=O)Nc2nc3c(s2)CCCC3)c1,inactive: 93%
18,CCCCCOC(=O)c1ccc(Nc2nc(C(=O)OCC)nc3ccccc23)cc1,inactive: 83%
19,Cc1coc2c1c(C)cc1oc(=O)c(CC(=O)NCc3ccc(Cl)cc3)c(C)c12,inactive: 90%
20,O=C(NCCc1ccc(F)cc1)C(=O)NCC(c1ccc2c(c1)OCO2)N1CCOCC1 (stereo not drawn),inactive: 88%
21,Cc1ccc2nc(-c3c[nH]c4ccccc34)c(Nc3ccccc3)n2c1,inactive: 87%
22,CCCN1CCN(CC2=C(C(=O)OCC)C(c3ccc(OC(C)C)cc3)NC(=O)N2)CC1 (stereo not drawn),inactive: 72%

row,SMILES,survival
1,CCNc1nc(NCC)nc(NCCO)n1,inactive: 98%
2,CCOc1ccc(-c2nc(CSCC(=O)NCCc3ccc(OCC)c(OCC)c3)c(C)o2)cc1,inactive: 91%
3,COc1ccccc1-c1c(C)nn2c(N3CCN(c4ccccc4)CC3)cc(C)nc12,inactive: 70%
4,CSc1nc2c(sc3ccccc32)c(=O)n1Cc1ccc(C)cc1,inactive: 72%
5,CCn1c(=O)c(=O)n(CC)c2cc(N3CCCCC3)c(NC(=O)c3ccccc3OC)cc21,inactive: 89%
6,COc1ccc(OC)c(CNC(=O)CN2N=C(c3ccc(Cl)cc3)CCC2=O)c1,inactive: 80%
7,O=C(NCCc1ccc(Cl)cc1)C(=O)NCC(c1cccs1)S(=O)(=O)c1cccs1 (stereo not drawn),inactive: 84%
8,CCCOC1(C(F)(F)F)NC(=O)N(c2cccc(Cl)c2)C1=O (stereo not drawn),inactive: 91%
9,C=Cc1ccc(Cn2c(C(=O)O)c(CNC3CCCCC3)c3ccc(OC)cc32)cc1,inactive: 115%
10,COc1cccc(CNC(=O)C(=O)NCC(c2ccc3c(c2)OCO3)N2CCOCC2)c1 (stereo not drawn),inactive: 73%
11,O=C(CN(CCO)CCO)N(C1CCCCC1)C1CCCCC1,inactive: 95%
12,O=C(Nc1ccc2nc(SCC(=O)N3CCOCC3)sc2c1)c1ccc(Br)cc1,inactive: 95%
13,COc1ccc(C(=O)Nc2cc(-c3nc4ccccc4s3)ccc2OC)cc1,active: 5%
14,CCC(C)NC(=O)CSc1c2c(nc3cc(Cl)ccc13)CCCC2 (stereo not drawn),inactive: 82%
15,CCOc1ccc(NC(=O)CSc2nnc(CNC(=O)C34CC5CC(CC(C5)C3)C4)n2CC)cc1,inactive: 123%
16,CCOC(=O)c1ccccc1NC(=O)Nc1cc2c(cc1N1CCCC1)n(C)c(=O)n2C,inactive: 124%
17,Cc1cc2oc(C(=O)Nc3cccc(-c4nc5ccccc5o4)c3)c(C)c2cc1C,inactive: 84%
18,COc1ccc(-n2nc3cc(C)c(NC(=O)Cc4ccc(Cl)cc4)cc3n2)cc1,inactive: 73%
19,CC(Oc1ccccc1)C(=O)Nc1ccccc1C(=O)OCc1cc(=O)n2nc(C(C)C)sc2n1 (stereo not drawn),inactive: 68%
20,CCc1ccc(NC(=O)CSc2nc(-c3cccc(OC)c3)nc3c2Cc2c(CO)cnc(C)c2O3)cc1,inactive: 85%
21,O=C(NCCc1ccccc1)c1ccc(Cn2c(SCc3ccccc3F)nc3cccnc32)cc1,inactive: 79%
22,O=C(CSc1nc(=O)n(Cc2ccncc2)c2c1CCC2)Nc1ccc(F)cc1F,inactive: 80%

row,SMILES,survival
1,CCCN1CN=C(NS(=O)(=O)c2ccc(NC(C)=O)cc2)NC1,inactive: 73%
2,COc1ccc(-c2noc(-c3ccc(N4CCN(c5ccccc5OC)CC4)c([N+](=O)[O-])c3)n2)cc1,inactive: 81%
3,COc1cc(C(=O)N(Cc2ccc(N(C)C)cc2)CC2CCCO2)cc(OC)c1OC (stereo not drawn),inactive: 86%
4,CCCc1cc(=O)[nH]c(Nc2cc(C)cc(C)c2)n1,inactive: 115%
5,Cc1c(C(=O)N(C)C)sc2c1c(=O)n(-c1ccc(Cl)c(Cl)c1)c(=O)n2CC(=O)N1CCCCC1C (stereo not drawn),inactive: 65%
6,CCCC12CN3CC(CCC)(CN(C1)C3c1ccc(OC(C)C)cc1)C2=O (stereo not drawn),inactive: 39%
7,COc1cccc(Cn2c(C)c(CNC3CCCCC3)c(C(=O)O)c2C)c1,inactive: 88%
8,O=C(O)c1ccc(N=NSCCO)cc1,inactive: 108%
9,CCOc1ccc(NC(=O)CCCOc2cc(=O)n(C)c3ccccc23)cc1,inactive: 71%
10,Clc1ccccc1CSc1nnc(C2CCNCC2)o1,inactive: 95%
11,COc1ccc(N2CCN(C(=O)CN3C(=O)COc4ccc(S(=O)(=O)N5CCC(C)CC5)cc43)CC2)cc1,inactive: 76%
12,O=C(CCn1nnc2ccccc21)N1CCC(O)(c2cccc(F)c2)CC1,inactive: 104%
13,COc1ccc(N2CC(NC(=O)C3CCCCC3)CC2=O)cc1OC (stereo not drawn),inactive: 85%
14,O=C(c1cnc2c(c1)COc1ccc(Cl)cc1-2)c1ccccc1O,inactive: 131%
15,COc1ccc(NC(=O)c2oc3ccccc3c2NC(=O)Cc2coc3ccc(C)cc23)cc1,inactive: 85%
16,Cc1ccc2nc(-c3ccc(C)o3)c(Nc3ccc4c(c3)OCCO4)n2c1,active: 19%
17,CCS(=O)(=O)c1oc(-c2ccc(F)cc2)nc1S(=O)(=O)c1ccccc1,active: -1%
18,O=C(CSc1nc2ncccc2o1)Nc1cccc(C(F)(F)F)c1,active: -3%
19,Cc1ccc(S(=O)(=O)N2CCN(C(=O)c3c(C)nn(-c4ccccc4)c3Cl)CC2)cc1,inactive: 102%
20,CCOc1cc(CNC(=O)c2ccc3nc(C(C)C)oc3c2)cc(OCC)c1OCC,inactive: 60%
21,COc1ccc(OC)c(CNC(=O)c2ccc3c(c2)c(C)c(C)n3C)c1,inactive: 85%
22,CCCCN(CC)C(=O)c1nn(-c2ccc(OC)cc2)c(=O)c2c1c1ccccc1n2C,inactive: 90%
